PubChem BioAssay AID2147 (National Center for Advancing Translational Sciences (NCATS), 2009)
Hit rate of the full screen: of about 230,000 compounds, about 3,600 (1.6%) were called active. The shares of active, inactive and inconclusive entries below differ from those in the screen. Calls come from the whole dose curve; as a rule, active = well fitted inhibition curve with a large enough effect (not every such curve was filed as active); inconclusive = small, poorly fitted or top-dose-only effect, or another doubt; inactive = no such curve, though single readings can be large or run the other way. A potency beside an inconclusive call is a rough fit, not a confirmed value.
Note: nearly all actives have a fitted effect of over 50% in size.
Potency is the fitted concentration of half-maximal effect; tags give direction and shape of the fitted curve.
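Throughout, for activity change, negative = inhibition: 0% = wells with enzyme and -100% = buffer wells without enzyme.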

Each molecule was assayed against Lysine-specific demethylase 4E (Homo sapiens) (UniProt B2RXH2) (assay: qHTS Assay for Inhibitors of Human Jumonji Domain Containing 2E (JMJD2E)). Details: JMJD2E catalytic domain, FDH-coupled NADH fluorescence (FDH is formaldehyde dehydrogenase); series mostly up to 57.1 µM; activity change, negative = inhibition: at the top concentration.
Chain of UniProt B2RXH2 (B2RXH2 whole entry, looked up, the tested form may be a part): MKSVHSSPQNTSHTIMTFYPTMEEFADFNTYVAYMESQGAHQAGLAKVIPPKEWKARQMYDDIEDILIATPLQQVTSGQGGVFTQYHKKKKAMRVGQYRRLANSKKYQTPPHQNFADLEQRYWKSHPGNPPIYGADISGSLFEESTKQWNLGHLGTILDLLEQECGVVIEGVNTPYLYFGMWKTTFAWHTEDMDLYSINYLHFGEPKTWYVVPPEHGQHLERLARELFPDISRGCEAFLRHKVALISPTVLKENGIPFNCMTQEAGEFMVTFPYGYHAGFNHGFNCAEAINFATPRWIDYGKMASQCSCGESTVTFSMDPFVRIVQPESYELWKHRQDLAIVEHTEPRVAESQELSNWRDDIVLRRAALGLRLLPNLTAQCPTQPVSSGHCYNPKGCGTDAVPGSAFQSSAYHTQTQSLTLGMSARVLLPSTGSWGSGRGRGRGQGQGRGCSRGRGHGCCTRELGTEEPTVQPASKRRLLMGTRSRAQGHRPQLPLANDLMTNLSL
With `Cc1ccc(NC(=O)N2CCC(C(=O)NCC(C)C)CC2)cc1` the “activity change, negative = inhibition” value was inactive: 1.62%.
For `c1ccc(C(Cc2nc(-c3ccccn3)no2)c2ccccc2)cc1`, the Potency was inconclusive: 39.8 µM [inhibitor, single point].
In the case of `Cc1ccc(-c2cc3nc(-c4ccc(Br)cc4)cc(N)n3n2)cc1`, the Potency is reported as inconclusive: 22.4 µM [inhibitor, partial curve].
In the case of `C=CCn1c(=O)c(C(=O)NCCc2ccccc2)c(O)c2ccccc21`, the Potency is reported as inconclusive: 31.6 µM [inhibitor, single point].
With `COc1ccc2oc(=O)c(C(=O)Oc3ccc(NC(C)=O)cc3)cc2c1` the Potency was inconclusive: 25.1 µM [inhibitor, partial curve].
`COc1ccc(C(=O)OCC(=O)c2c(N)n(C)c(=O)n(C)c2=O)cc1OC` was tested, and the “activity change, negative = inhibition” value was inactive: -1.86%.
In the case of `Cc1ccc(N=Cc2c(O)ccc3ccccc23)cc1F`, the “activity change, negative = inhibition” value is reported as inactive: -4.93%.
`COc1ccc(S(=O)(=O)Cc2ccc(C(=O)N3CCN(C(=O)c4ccco4)CC3)o2)cc1` was tested, and the “activity change, negative = inhibition” value was inactive: -2.01%.
In the case of `COc1ccc(Br)cc1C(=O)Nc1ccc(N2CCN(S(C)(=O)=O)CC2)cc1`, the “activity change, negative = inhibition” value is reported as inactive: -0.289%.
`CC(C)Oc1ccc(CCN=C(N)N=C(N)N)cc1Cl` was tested, and the Potency was inconclusive: 28.2 µM [inhibitor, single point].
For `COc1ccc(/C(C)=N/NS(=O)(=O)c2cc(C)ccc2C)c(OC)c1`, the “activity change, negative = inhibition” value was inactive: 7.09%.
With `Cc1ccccc1OCc1nc(-c2ccc(NC(=O)c3cccs3)cc2)no1` the Potency was inconclusive: 35.5 µM [inhibitor, single point].
In the case of `COc1cccc(-c2ncc3ccccn23)c1`, the Potency is reported as inconclusive: 31.6 µM [inhibitor, partial curve].
For `CC(C)(C)NC(=O)c1ccc2c(c1)N(CC(=O)N1CCN(c3ccccc3F)CC1)C(=O)C(C)(C)O2`, the “activity change, negative = inhibition” value was inactive: 5.88%.
`Cc1ccccc1-c1cc2nc(-c3ccc([N+](=O)[O-])cc3)cc(=O)n2[nH]1` was tested, and the “activity change, negative = inhibition” value was inactive: -1.62%.
With `COc1ccc(-c2n[nH]c(=S)n2-c2ccc(C)cc2)cc1` the “activity change, negative = inhibition” value was inactive: -1.89%.
With `Cc1c(=O)n(OCc2cccc(F)c2)c2ccccc2[n+]1[O-]` the Potency was inconclusive: 22.4 µM [inhibitor, single point].
For `O=C(OC1Cc2c(O)cc(O)cc2OC1c1cc(O)c(O)c(O)c1-c1c(C2Oc3cc(O)cc(O)c3CC2OC(=O)c2cc(O)c(O)c(O)c2)cc(O)c(O)c1O)c1cc(O)c(O)c(O)c1` (stereo not given), the Potency was active: 11.2 µM.
With `COc1ccc(N2CCN(C(=O)Cn3nnc(-c4cccs4)n3)CC2)cc1` the Potency was inconclusive: 3.98 µM [inhibitor, partial curve].
`c1ccc(-c2nc3ccccc3o2)nc1` was tested, and the Potency was inconclusive: 35.5 µM [inhibitor, partial curve].
With `CC(=O)n1cc([C@H]2C=C(C(=O)N3CCOCC3)O[C@@H](OCc3ccc(CO)cc3)C2)c2ccccc21` the Potency was inconclusive: 39.8 µM [inhibitor, single point].
For `O=C(c1ccco1)N1CCN(CC(=O)N2c3ccccc3CCc3ccccc32)CC1`, the Potency was inconclusive: 28.2 µM [inhibitor, single point].
In the case of `CCc1cc(C(=O)O)c(NC(=O)C(c2ccccc2)c2ccccc2)s1`, the “activity change, negative = inhibition” value is reported as inactive: 1.63%.
`CCOC(=O)N1CCC(NC(=O)c2cc3cc4cc(OC)ccc4nc3o2)CC1` was tested, and the Potency was inconclusive: 28.2 µM [inhibitor, partial curve].
In the case of `Cc1cccc2c(C(=O)N3CCN(C(=O)c4ccco4)CC3)cc(-c3cccc(Br)c3)nc12`, the Potency is reported as inconclusive: 22.4 µM [inhibitor, single point].
In the case of `CCOC(=O)C(C)Oc1cccc2c(=O)n(CC(=O)NCCc3ccccc3)ccc12` (stereo not given), the Potency is reported as inconclusive: 31.6 µM [inhibitor, single point].
`CCNC(=S)N1CCN(Cc2ccccc2)CC1` was tested, and the Potency was inconclusive: 25.1 µM [inhibitor, single point].
With `Cc1ccc2cc(CN(CCCN3CCOCC3)C(=O)NC3CCCCC3)c(=O)[nH]c2c1C` the Potency was inconclusive: 31.6 µM [inhibitor, single point].
In the case of `N#Cc1cc2c(nc1SCc1cccnc1)CCCCC2`, the “activity change, negative = inhibition” value is reported as inactive: 5.88%.
For `Cc1cccc(NS(=O)(=O)c2ccc(C3CCCCC3)cc2)c1`, the “activity change, negative = inhibition” value was inactive: -2.31%.
In the case of `CN(C)c1ccc2c(=O)[nH][nH]c(=O)c2c1`, the Potency is reported as inconclusive: 28.2 µM [inhibitor, partial curve].
`O=c1cc(-c2ccccc2)oc2ccc(O)cc12` was tested, and the “activity change, negative = inhibition” value was inactive: -4.77%.
In the case of `O=C(Cc1cn2ccsc2n1)Nc1nc2c(s1)CN(Cc1ccccc1)CC2`, the Potency is reported as inconclusive: 22.4 µM [inhibitor, single point].
In the case of `COc1ccc(OCC(=O)NNc2c3ccccc3nc3ccccc23)cc1`, the Potency is reported as inconclusive: 20 µM [inhibitor, single point].
In the case of `Cc1ccc(C(=O)Nc2ccccc2C(=O)N2CCCCCC2)cc1`, the “activity change, negative = inhibition” value is reported as inactive: 10.8%.
In the case of `CCC1(C)Cc2ccccc2-c2nc(NCCCO)[nH]c(=O)c21` (stereo not given), the Potency is reported as inconclusive: 28.2 µM [inhibitor, partial curve].
`CCSc1nnc(NC(=O)C(NC(=O)c2ccc(Cl)cc2)C(C)C)s1` (stereo not given) was tested, and the Potency was inconclusive: 39.8 µM [inhibitor, single point].
`CCOC(=O)c1sc(C)c2c1NC(C)(c1ccccc1)NC2=O` (stereo not given) was tested, and the Potency was inconclusive: 22.4 µM [inhibitor, partial curve].
For `Cc1cccn2c(=O)c3cc(C(=O)NCc4cccnc4)c(=N)n(C)c3nc12`, the Potency was inconclusive: 17.8 µM [inhibitor, partial curve].
`CC(C)CCNC(=O)COc1ccc2c3c(c(=O)oc2c1)CCC3` was tested, and the Potency was inconclusive: 22.4 µM [inhibitor, partial curve].
For `CC1(OC(=O)CCc2ccccc2)C(=O)C=C2C=C(c3ccc(C#N)cc3)N(Cc3ccccc3)C=C2C1=O` (stereo not given), the Potency was active: 15.8 µM.
With `CN(C)Cc1ccccc1-c1ccc2ncnc(NC3CC3)c2c1` the Potency was inconclusive: 39.8 µM [inhibitor, single point].
`Cc1ccc(-c2cc(=O)c3ccc(F)cc3[nH]2)cc1` was tested, and the Potency was inconclusive: 39.8 µM [inhibitor, single point].
`CCC1CCCCN1C(=O)c1nn2cccnc2c1Cl` (stereo not given) was tested, and the “activity change, negative = inhibition” value was inactive: 2.98%.
In the case of `CCOc1nc2cccc(C(=O)OC(C)OC(=O)OC3CCCCC3)c2n1Cc1ccc(-c2ccccc2-c2nn[nH]n2)cc1` (stereo not given), the Potency is reported as inconclusive: 31.6 µM [inhibitor, partial curve].
